Out of some 4,800 compounds screened, about 420 (8.8%) showed an effect of 50% or more. This is one part of the list.
Test system: Plasmodium falciparum
Assay: Confirmatory screen in NF54 nanoGlo assay, in single point, at 2uM, 72h
Format: functional, Erythrocyte
Settings: timepoint 72 hour

| SMILES | % Inhibition [%] |
| --- | --- |
| CN1CCOC(C(=O)NC(c2c(F)cccc2F)C(F)(F)F)C1 (stereo unspecified) | -1 |
| Cn1cc(-c2ccc(Cl)cc2)c2ncn(CC(=O)Nc3cccc(Cl)c3)c(=O)c21 | -5 |
| N#Cc1ccc(N2CCN3C(=O)NCC3C2)nc1N1CCN2C(=O)NCC2C1 (stereo unspecified) | -12 |
| COc1cc(N2CCn3c(nc4cc(Cl)ccc43)C2)ccc1NC(=O)c1ccccc1OC | 4 |
| CCCCc1cc(NC(=O)c2cnc(C)cn2)on1 | -6 |
| CCOc1cc(=O)c(C(=O)N2CCCCC2)nn1-c1ccc(OC)cc1 | -19 |
| O=C(NCCN1CCCC1)c1ccc2c(c1)OCCO2 | -12 |
| O=C(Nc1ccccc1Cl)N1CCC(N2CCc3sccc3C2)CC1 | 37 |
| CC1CCC2(CC1)N=C(c1ccc(Cl)c(Cl)c1)C(=O)N2 (stereo unspecified) | 7 |
| CN(C)c1ccc(C2OCC3(CCC4(COC(c5ccc(N(C)C)cc5)OC4)O3)CO2)cc1 (stereo unspecified) | -5 |
| O=S(=O)(Cc1ccno1)NCCc1ccccc1OC(F)F | 2 |
| Cn1ncc2c(N3CC(=O)N(C4CC4)C3)ncnc21 | -13 |
| O=C(c1cccc(COc2ccc(Br)cc2)c1)N1CCN(Cc2ccccc2)CC1 | -13 |
| COC(=O)c1ccc(Nc2nc(C)c3nc(C)n(-c4ccc(C(=O)OC)cc4)c3n2)cc1 | -1 |
| CCOc1cc([C@H]2Nc3ccccc3C(=O)N2c2ccccc2)ccc1OCc1ccc(F)cc1 | -9 |
| Cc1ccc(C(=O)N2CC(n3cnnc3C)C2)cc1F | -19 |
| C[C@H](NCc1cc(C(N)=O)cs1)c1cccc(Cl)c1 | 0 |
| CCOc1ncc(Br)cc1C(=O)O | -17 |
| COc1cccc2c1N(CC(=O)NCC(F)(F)F)CC[C@@H]2C | 0 |
| CC[C@@H](Cc1ccccc1Br)C(=O)NCCC(N)=O | -8 |
| O=C(c1ccccc1F)N(Cc1nccn1Cc1ccccc1F)CC1CC1 | 20 |
| C[C@@H](C(=O)Nc1cccc2ccccc12)N1CCCCC1 | 0 |
| CCN(c1ccc(C(=O)Nc2cnc3[nH]nc(C)c3c2)cn1)C(C)C | 6 |
| CCCOC(=O)c1cc(NC(=O)c2ccc3ccccc3c2)ccc1N1CCOCC1 | -8 |
| CC(C)(C)[C@H](Cn1cccn1)NC(=O)Cn1nc(C(F)F)c2c1CCC2 | -4 |
| O=C(Cn1cnc2ccc(Cl)cc2c1=O)NCc1ccc2c(c1)OCO2 | -5 |

| SMILES | % Inhibition [%] |
| --- | --- |
| CC1(C)Oc2ccc(NC(=O)COc3ccccc3)cc2NC1=O | 11 |
| Cc1n[nH]cc1Nc1ccnc(C(C)(C)C)n1 | 2 |
| C[C@H](Oc1ccccc1Cl)/C(N)=N\O | -5 |
| COc1ccc(Nc2ncc(Cc3ccccc3C)s2)cc1 | 5 |
| CN(c1ccc2nnnn2n1)C1CCCCC1 | -4 |
| Cn1ccnc(NC(=O)N(Cc2c(F)cccc2F)C2CC2)c1=O | -15 |
| Cc1ccc(Cl)c(OCn2ccc(C(=O)Nc3ccc(Br)cn3)n2)c1 | -16 |
| CCOC(=O)[C@@H](N1CCCC1=O)n1c(=O)[nH]cc(C)c1=O | -12 |
| O=C(c1cncnc1)N1C[C@H]2CCCC(=O)N(Cc3ccccc3)[C@H]2C1 | 2 |
| CC(C)OC(=O)N1C(=O)c2ccccc2NC1(C(F)(F)F)C(F)(F)F | -22 |
| Cc1cccc(NC(=O)Cn2ccc(C(=O)Nc3cccc(C)c3C)n2)c1C | -12 |
| CN1CCC(NCC[C@@H](Cc2ccccc2Cl)c2ccc(Cl)cc2)CC1 | 82 |
| COc1ccc(-n2ncc3c(NCCNC(=O)c4ccccc4Cl)nc(C)nc32)cc1 | -12 |
| Cc1cccc(N2C(=O)C3CC3C2=O)c1 (stereo unspecified) | 1 |
| CCN1CCN(c2nc3ncn(CC(=O)NCCCc4ccccc4)c(=O)c3s2)CC1 | -4 |
| CCOc1cccc2c1OC1(C)C(C(=O)Nc3ccc(C)cc3C)C2NC(=O)N1c1ccccc1 (stereo unspecified) | -7 |
| CC(=O)C1(C(C)=O)[C@H](c2ccc(F)cc2)C1(C#N)C#N | -15 |
| CC(=O)Nc1cccc(NC(=O)[C@H]2CC[C@H](Cn3c(O)nc4ccccc4c3=O)CC2)c1 | -1 |
| CC1(CCCCNC(=O)N2CC[C@H](S(C)(=O)=O)C2)OCCO1 | -1 |
| Cc1nccn1[C@H]1[C@@H]2OC[C@@H](O2)[C@@H](NCc2ccncc2Cl)[C@@H]1O | 1 |
| O=C(c1cccc(O)c1)N1CCC(OCc2ccccc2F)CC1 | -1 |
| O=C1NCCCc2nn(Cc3cc(F)ccc3Br)cc21 | -12 |
| Nc1c(-c2nc3ccccc3[nH]2)c2nc3ccccc3nc2n1Cc1ccccc1F | 64 |
| Cc1nn(C)c(C)c1S(=O)(=O)Nc1ncc(C(C)C)s1 | -1 |
| CCCCCC(=O)Nc1ccccc1Cl | 8 |
| Cc1cc(NC(=O)c2cccc(S(=O)(=O)NC3CC3)c2)no1 | -8 |

| SMILES | % Inhibition [%] |
| --- | --- |
| O=C(Nc1ncn(C[C@@H](COC(=O)c2ccc(F)cc2)OC(=O)c2ccc(F)cc2)c2ncnc1-2)c1ccc(F)cc1 | -15 |
| CN(C)CCOC(=O)CC[C@H]1CCOC(C)(C)C1 | 1 |
| O=C(O)COc1ccccc1[C@H]1CC(O)=Nc2cccc3c2c1cn3Cc1cccc(F)c1 | 1 |
| CC(C)NC(=O)c1ccc(CN2C(=O)COc3ccc(C(=O)COc4ccc(F)c(F)c4)cc32)o1 | 4 |
| CC(C)(C)CCN1CCN(S(=O)(=O)C[C@H]2CCCS(=O)(=O)C2)CC1 | -3 |
| Cc1cc(N2CCC3(CCCN3Cc3cc(C#N)n(C)c3C)CC2)c2ccccc2n1 | 42 |
| COc1cccc(-c2nc3n(c2C(=O)Nc2ccccc2C#N)CCS3(=O)=O)c1 | 3 |
| Fc1ccc(OCc2nccc(-c3ccc4c(c3)OCO4)n2)cc1 | 4 |
| Cc1ccc(-c2csc(NC(=O)c3cccc(C(=O)Nc4nc(-c5ccc(C)cc5C)cs4)n3)n2)c(C)c1 | -1 |
| COc1cc(NC(=O)N[C@@H](C)C(=O)N2CCc3ccccc32)cc(OC)c1 | 4 |
| CC1CCC(c2noc([C@H]3CCO[C@@H]3c3cncc(Br)c3)n2)CC1 (stereo partly specified) | 52 |
| Cc1cc(C)c(NC(=O)c2nnn(CC(=O)NCc3ccc(F)cc3)c2C)c(C)c1 | -9 |
| Cn1nccc1CCNS(=O)(=O)c1c[nH]c2cccc(F)c12 | 5 |
| O=S1(=O)CCN(C2CCN(Cc3c(F)cccc3F)CC2)CC1 | 4 |
| COCCCn1c(=O)c2ccccc2n(CC(=O)N(C)c2ccccc2)c1=O | -4 |
| O=C(N[C@@H](Cc1ccccc1)C(=O)OCc1cnc(-c2ccccc2)o1)c1ccccc1 | -5 |
| Cc1ccc(-c2nc(CNC(=O)C[C@H]3CNCCO3)[nH]c2-c2ccccn2)cc1 | 22 |
| OCCCN1c2ccccc2Nc2nnc(-c3ccccc3)cc21 | -2 |
| S=c1cc(-c2ccccc2)n(Cc2ccco2)c2c1CCCC2 | 38 |
| Cc1ccccc1[C@H](CC(=O)O)NC(=O)C(F)(F)F | 8 |
| Cc1cc(N(CCO)C2CC2)nc(C2CC2)n1 | -8 |
| Cc1cnc(N2CCCC2C2CCCO2)s1 (stereo unspecified) | -11 |
| O=C(c1cn[nH]c1-c1ccccc1)N1CCCCCC1 | -3 |
| Cc1cc(N2CC(OCc3ccccc3)C2)nc(Nc2cccc(O)c2)n1 | 96 |
| Cn1cc(NC(=O)Nc2cccc(OCC(F)F)n2)cn1 | -9 |
| C[C@H]1[C@@H]2[C@@H](O)C([C@H](C)C(=O)NC3CCCC3)CC[C@@]2(C)CC[C@@H]1NC(=O)c1ccc(C#N)cc1 (stereo partly specified) | -10 |

| SMILES | % Inhibition [%] |
| --- | --- |
| CN(C)c1ccc(NC(=O)C(C2CC=CCC2)N(Cc2nc(-c3ccccc3)cs2)C(=O)Cn2nnc3ccccc32)cc1 (stereo unspecified) | 1 |
| Cc1ccc(Cl)c(OC(C)C(=O)N2C3CCC2CC(O)(Cc2ccc(F)cc2F)C3)c1 (stereo unspecified) | 2 |
| COc1ccccc1[C@@H]1C=C(c2cccnc2)Nc2ncnn21 | -6 |
| O=C(O)c1cc(N2CCC(Cc3ccccc3)CC2)ccc1NC(=O)C1CCC1 | -14 |
| CCC(C)(CC)[C@@](O)(C#CC[N+]1(Cc2ccccc2Cl)CCCCC1)c1ccccc1 | 4 |
| Cn1ncc2c(NCCO)nc(N3CCCCCC3)nc21 | 5 |
| CNC(=O)Nc1cc(C)cc2c(-c3ccccc3)c(C(=O)NCc3cccc(F)c3)[nH]c12 | 2 |
| Cc1nn(-c2ccccc2)c(C)c1C(=O)Nc1cccc(N2CCCC2=O)c1 | -11 |
| CN(C(=O)[C@@H]1CCCN1C(=O)OC(C)(C)C)c1nccs1 | -10 |
| O=C1CCc2cc(OS(=O)(=O)c3ccc(F)cc3)ccc2N1 | 3 |
| O=C1C[C@@H](C(=O)N2CCC3(CCCCC3)C2)CCN1 | -3 |
| c1cn(CCCOc2ccc3c(c2)OCO3)nn1 | 3 |
| CN(CC(=O)NCc1ccco1)c1nnc(N2CCCC2=O)s1 | 7 |
| Cn1nc(C2CC2)c2c(C(F)F)cc(-c3ccc4c(c3)OCO4)nc21 | -3 |
| Cn1cccc1CNCc1ccncc1 | 0 |
| COc1ccc(-n2ncc(Oc3cccc(C)c3)c(Nc3cccc(C(=O)NCc4ccc(F)cc4)c3)c2=O)cc1 | 50 |
| CC(C)c1c2cc3c(cc2nn1-c1ccccc1)OCCO3 | -9 |
| COc1ccc(-c2c[n+](-c3ccc(Cl)cc3)c3n2CCCCC3)cc1 | 60 |
| COC(=O)[C@]1(C)CN(C(=O)NCc2cc(C#N)ccc2F)C[C@H]1C | 7 |
| Cc1cc(=O)[nH]c(-n2nc(C3CC3)cc2NC(=O)c2ccc(C(C)(C)C)cc2)n1 | 57 |
| COc1cc(NCC(=O)NC(N)=O)cc(OC)c1OC | -4 |
| O=C(NC[C@H]1CCCO1)c1cc(C(=O)C2CC2)c[nH]1 | -13 |
| Cc1nc(NC(=O)c2ccn(COc3ccc(F)c(Cl)c3)n2)sc1C | -15 |

— ChEMBL document CHEMBL4888484, “Replenishing the malaria drug discovery pipeline: Screening and hit evaluation of the MMV Hit Generation Library 1 (HGL1) against asexual blood stage Plasmodium falciparum ,using a nano luciferase reporter read-out” (2022)
